# Literature values in PMC11006913.
# Positions count from the first letter of the chain named. This is one part of the list.
# How the values were obtained:
# Conditions in all cases: PBM; conditions not shown; double strand, one strand shown; scale: upbm affinity estimate (log intensity, higher = more binding, comparable within an allelic series)
# [1] = molecular target: T1, PBX4 (Homo sapiens) (UniProt Q9BYU1)
# T1 sequence: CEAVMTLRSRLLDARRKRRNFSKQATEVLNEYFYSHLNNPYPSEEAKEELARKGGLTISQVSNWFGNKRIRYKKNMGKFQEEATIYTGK
# [2] = molecular target: T2, PBX4 R215Q (Homo sapiens) (UniProt Q9BYU1)
# T2 sequence: T1 sequence with R19Q
# [3] = molecular target: NKX2-5 R190C (Homo sapiens) (UniProt P52952)
# Sequence of UniProt P52952 (P52952 125-210 R190C): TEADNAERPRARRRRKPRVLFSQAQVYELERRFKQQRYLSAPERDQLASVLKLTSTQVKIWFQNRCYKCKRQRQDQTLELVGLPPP
sequence,measurement,setting,value
CAGCCCCC [8-mer CAGCCCCC],binding signal,[1],9.58
same,binding signal,[2],9.77
CTAAGAGC [8-mer CTAAGAGC],binding signal,[3],10.4
CCCAGGTA [8-mer CCCAGGTA],binding signal,[1],9.97
same,binding signal,[2],9.95
CGGAACAG [8-mer CGGAACAG],binding signal,[1],9.97
same,binding signal,[2],9.94
CACCCTGA [8-mer CACCCTGA],binding signal,[1],9.97
same,binding signal,[2],9.89
CCGGAGGC [8-mer CCGGAGGC],binding signal,[1],9.56
same,binding signal,[2],9.67
AAGATCCG [8-mer AAGATCCG],binding signal,[1],10
same,binding signal,[2],9.84
CCTCTGCA [8-mer CCTCTGCA],binding signal,[1],9.87
same,binding signal,[2],9.86
CTTGACTC [8-mer CTTGACTC],binding signal,[1],9.97
same,binding signal,[2],9.84
GTGTGCGA [8-mer GTGTGCGA],binding signal,[1],9.94
same,binding signal,[2],9.82
ATTTGATG [8-mer ATTTGATG],binding signal,[1],10.8
same,binding signal,[2],10.2
AGAGAGTG [8-mer AGAGAGTG],binding signal,[1],9.91
same,binding signal,[2],9.85
ACCTCTCG [8-mer ACCTCTCG],binding signal,[1],9.76
same,binding signal,[2],9.83
TGAGCGCA [8-mer TGAGCGCA],binding signal,[1],9.76
same,binding signal,[2],9.78
GACAATGC [8-mer GACAATGC],binding signal,[1],9.99
same,binding signal,[2],9.93
TATGTCAA [8-mer TATGTCAA],binding signal,[1],10.8
same,binding signal,[2],10.2
CGGTGTGC [8-mer CGGTGTGC],binding signal,[1],9.74
same,binding signal,[2],9.73
CACATCAA [8-mer CACATCAA],binding signal,[1],10.9
same,binding signal,[2],10.2
CAAATCAA [8-mer CAAATCAA],binding signal,[1],10.7
same,binding signal,[2],10.2
GCGCCACC [8-mer GCGCCACC],binding signal,[1],9.65
same,binding signal,[2],9.66
GCGCTCTA [8-mer GCGCTCTA],binding signal,[1],9.89
same,binding signal,[2],9.84
ACTTGGCC [8-mer ACTTGGCC],binding signal,[1],9.78
same,binding signal,[2],9.8
CTCGTCAA [8-mer CTCGTCAA],binding signal,[1],11.1
same,binding signal,[2],10.2
ATGGTTCG [8-mer ATGGTTCG],binding signal,[1],9.95
same,binding signal,[2],9.94
GGCCACAA [8-mer GGCCACAA],binding signal,[1],9.79
same,binding signal,[2],9.77
TCAATCAA [8-mer TCAATCAA],binding signal,[1],11
same,binding signal,[2],10.3
TCCATCAA [8-mer TCCATCAA],binding signal,[1],10.8
same,binding signal,[2],10.2
GTCGCACA [8-mer GTCGCACA],binding signal,[1],9.9
same,binding signal,[2],9.8
CATCAATC [8-mer CATCAATC],binding signal,[1],10.9
same,binding signal,[2],10.2
CGACTGAA [8-mer CGACTGAA],binding signal,[1],9.82
same,binding signal,[2],9.77
GTCGGTGA [8-mer GTCGGTGA],binding signal,[1],9.98
same,binding signal,[2],9.92
ACTCGTCA [8-mer ACTCGTCA],binding signal,[1],11
same,binding signal,[2],10.3
CCTCCGAA [8-mer CCTCCGAA],binding signal,[1],9.8
same,binding signal,[2],9.81
CCGTGGCA [8-mer CCGTGGCA],binding signal,[1],9.84
same,binding signal,[2],9.8
CCCCAAAG [8-mer CCCCAAAG],binding signal,[1],9.85
same,binding signal,[2],9.8
CACGTCAA [8-mer CACGTCAA],binding signal,[1],10.8
same,binding signal,[2],10.2
CCGGGGTC [8-mer CCGGGGTC],binding signal,[1],9.5
same,binding signal,[2],9.69
CTTCCCTC [8-mer CTTCCCTC],binding signal,[1],9.88
same,binding signal,[2],9.87
GATATCGA [8-mer GATATCGA],binding signal,[1],9.96
same,binding signal,[2],9.95
GACGTTCC [8-mer GACGTTCC],binding signal,[1],10
same,binding signal,[2],9.86
TCAAATCA [8-mer TCAAATCA],binding signal,[1],10.6
same,binding signal,[2],10.2
ATGACATG [8-mer ATGACATG],binding signal,[1],11
same,binding signal,[2],10.2
CGACTCCC [8-mer CGACTCCC],binding signal,[1],9.82
same,binding signal,[2],9.79
CATGTCAA [8-mer CATGTCAA],binding signal,[1],11
same,binding signal,[2],10.3
ATGTCACA [8-mer ATGTCACA],binding signal,[1],10.7
same,binding signal,[2],10.1
AATATACT [8-mer AATATACT],binding signal,[1],10
same,binding signal,[2],9.93
ACTTCTTC [8-mer ACTTCTTC],binding signal,[1],9.99
same,binding signal,[2],9.96
TCGTCAAA [8-mer TCGTCAAA],binding signal,[1],11
same,binding signal,[2],10.3
ATCGGGCA [8-mer ATCGGGCA],binding signal,[1],9.96
same,binding signal,[2],9.88
TGATGACA [8-mer TGATGACA],binding signal,[1],10.6
same,binding signal,[2],10.1
CTATGGGC [8-mer CTATGGGC],binding signal,[1],9.86
same,binding signal,[2],9.85
